# Reference: PubChem BioAssay AID485294 (National Center for Advancing Translational Sciences (NCATS), 2010)
# In all, about 370,000 compounds went through this assay and about 150 (0.041%) were called active. This list was built around the results that the source calls inconclusive (neither active nor inactive); the mix of calls is not that of the screen. The call rests on the fitted dose curve; in most records, active means well fitted inhibition curve with a large enough effect; inconclusive means small, poorly fitted or top-dose-only effect; inactive means flat fitted curve, though single readings scatter. No potency is given beside an inconclusive call; the fits are too rough.
# Target: Beta-lactamase (Escherichia coli (strain K12)) (UniProt P00811)
# Test: qHTS Inhibitors of AmpC Beta-Lactamase (assay with detergent); further: nearly all actives have a fitted effect of over 25% in size
# Details: AmpC hydrolysis of nitrocefin, absorbance 480 nm, 0.01% Triton; series mostly up to 114 µM
# Outline: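 AmpC (5.3 nM in the dispensed reagent) in 20 mM phosphate pH 7.0 with 0.01% (detergent screen) or 0.0001% Triton X-100 was preincubated with compounds for 15 min at room temperature. Nitrocefin was then added from an 800 uM solution, and hydrolysis was followed at 480 nm.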
# Potency means the concentration at half of the fitted maximal effect; tags describe the fitted curve by direction and shape.
# Sequence of UniProt P00811 (P00811 whole entry, looked up): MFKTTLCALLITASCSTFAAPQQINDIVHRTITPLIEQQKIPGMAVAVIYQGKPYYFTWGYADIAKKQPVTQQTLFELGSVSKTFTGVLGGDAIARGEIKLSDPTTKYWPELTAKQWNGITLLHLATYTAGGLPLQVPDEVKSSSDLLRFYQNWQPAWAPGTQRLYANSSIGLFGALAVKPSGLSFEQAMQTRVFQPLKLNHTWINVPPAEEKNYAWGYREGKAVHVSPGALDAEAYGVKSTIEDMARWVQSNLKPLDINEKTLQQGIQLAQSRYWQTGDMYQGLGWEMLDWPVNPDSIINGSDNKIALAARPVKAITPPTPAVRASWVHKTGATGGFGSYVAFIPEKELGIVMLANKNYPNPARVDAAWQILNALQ
row,SMILES,Potency
1,N#CCSc1nc2cc(C(=O)N3CCC(C(N)=O)CC3)ccc2c2nc3ccccc3n12,"inconclusive [inhibitor, partial curve]"
2,CCOC(=O)N1CCN(C(=O)c2ccc(CS(=O)c3ccccc3)o2)CC1 (configuration not stated),inactive
3,COC(=O)C1Cc2c([nH]c3ccccc23)C(C(C)C)N1 (configuration not stated),inactive
4,C=CCn1c(SCc2nc3scc(-c4ccccc4)c3c(=O)[nH]2)nnc1-c1ccccc1F,inactive
5,COc1cc(C2C(C(=O)Nc3ccc(F)cc3)=C(C)Nc3nc(CCCO)nn32)cc(OC)c1OC (configuration not stated),"inconclusive [inhibitor, partial curve, poor fit]"
6,CNC(C)Cc1ccccc1Sc1ccc(O)cc1 (configuration not stated),"inconclusive [inhibitor, partial curve, poor fit]"
7,O=C(Cn1c(=O)oc2ccccc21)N1CCN(S(=O)(=O)c2ccccc2)CC1,inactive
8,COc1ccc(CNC(C)C23CC4CC(CC(C4)C2)C3)c(OC)c1OC (configuration not stated),inactive
9,Cn1c(=O)c2[nH]c(Nc3ccccc3)nc2n(C)c1=O,"inconclusive [inhibitor, partial curve]"
10,COC(=O)C1CCN(Cc2nnc(-c3ccccc3)o2)CC1,inactive
11,COc1ccc(Cc2nc3ccc(C(=O)N4CCN(C)C(C)C4)cc3o2)cc1OC (configuration not stated),inactive
12,CCCCN1CNC(=S)N(c2ccc(C(=O)OCC)cc2)C1,inactive
13,Cc1cccc(NC(=O)[C@@H]2CCCN2C2=NS(=O)(=O)c3ccccc32)c1C,"inconclusive [inhibitor, full curve, poor fit]"
14,O=C(CN(C(=O)CCC(=O)Nc1nccs1)c1cccc(F)c1)NCc1ccccc1,"inconclusive [inhibitor, full curve, poor fit]"
15,CC(=O)NCC(=O)NC1CCCc2c1cnn2-c1ccccc1F (configuration not stated),"inconclusive [inhibitor, full curve, poor fit]"
16,COc1ccc(OC)c(NC(=O)C2C3CCC(C3=C(C)C)C2C(=O)O)c1 (configuration not stated),inactive
17,O=C(CSc1nc2ccccc2[nH]1)Nc1nc(-c2ccccc2)c(-c2ccccc2)o1,"inconclusive [inhibitor, partial curve]"
18,O=C1C2C3C=CC(C3=C(c3ccccc3)c3ccccc3)C2C(=O)N1Cc1ccccc1 (configuration not stated),inactive
19,CN(C)CCCn1c2c(c(SCC(=O)Nc3nccs3)nc1=O)CCC2,"inconclusive [inhibitor, full curve, poor fit]"
20,CCCNC(=O)C(C)n1c2ccccc2c2nc(=O)cc(C)n21 (configuration not stated),"inconclusive [inhibitor, partial curve]"
21,COc1ccc(C(=O)Nc2ccc3c(c2)nc(CCNC(=O)c2ccco2)n3C)cc1,"inconclusive [inhibitor, full curve, poor fit]"
22,Cc1nc(-c2ccccc2)cc(=O)[nH]1,"inconclusive [inhibitor, partial curve, poor fit]"
23,COc1ccc(C(=O)NNC(=O)COc2ccc(Cl)cc2)c(OC)c1,"inconclusive [inhibitor, full curve, poor fit]"

row,SMILES,Potency
1,COc1cccc(Cn2ncc3c4sc(B(O)O)cc4n(C)c3c2=O)c1,active: 1.12 µM
2,CC(C)C(c1nnnn1C1CCCC1)N1CCN(C(=O)c2ccco2)CC1 (configuration not stated),"inconclusive [inhibitor, single point]"
3,COc1ccc(/C=C(\C#N)C(=O)NC2CCS(=O)(=O)C2)cc1OC (configuration not stated),"inconclusive [inhibitor, full curve, poor fit]"
4,Cc1ccc(NC(=O)COc2ccc(Br)cc2C)cc1,inactive
5,Cc1ccccc1NS(=O)(=O)c1ccc2c3c(cccc13)C(=O)N2C,"inconclusive [inhibitor, full curve, poor fit]"
6,Cc1cccc(NC(=O)c2oc3ccc(S(=O)(=O)N4CCC5(CC4)OCCO5)cc3c2C)c1C,inactive
7,O=C(Nc1ccccc1)O/N=C/c1ccc(F)cc1,"inconclusive [inhibitor, full curve, poor fit]"
8,Cc1cc(Nc2ccccc2O)c2ccccc2n1,inactive
9,CC(CNC(=O)c1ccc(-c2ccccc2)cc1)CN(C)C (configuration not stated),"inconclusive [inhibitor, full curve, poor fit]"
10,COc1ccc([N+](=O)[O-])c(S(=O)(=O)c2ccccc2)n1,"inconclusive [inhibitor, partial curve, poor fit]"
11,CCN(CC)CCOC(=O)c1ccc(N/C=C(/C#N)c2nc(-c3ccc(OC)c(OC)c3)cs2)cc1,inactive
12,COc1ccc(-c2c([C@H]3[C@H]4C=CC[C@@H](C)[C@@H]4C(=O)N3Cc3ccccc3)ccc3ccccc23)cc1OC,inactive
13,Cc1nn(C)c2ncc(C(=O)c3cc(F)ccc3O)cc12,inactive
14,O=C(CNC(=O)c1cccs1)Nc1ccncc1,"inconclusive [inhibitor, full curve, poor fit]"
15,CN1C(=O)C2(OCC(COc3ccc(Cl)cc3)O2)c2ccccc21 (configuration not stated),"inconclusive [inhibitor, full curve, poor fit]"
16,CCC(=O)NCCCCCCNC(=O)CC,"inconclusive [inhibitor, full curve, poor fit]"
17,COc1ccc(C(=O)Nc2ccc3oc(Cc4ccc(Cl)cc4)nc3c2)cc1OC,"inconclusive [inhibitor, partial curve]"
18,CCOc1ccc(NC(=O)C(C)Sc2nc3ncccc3o2)cc1 (configuration not stated),inactive
19,Cc1cc(NS(=O)(=O)c2ccc(Nc3nc(-c4ccc(O)cc4)cs3)cc2)no1,"inconclusive [inhibitor, partial curve, poor fit]"
20,CC1CCCCC1NC(=O)CO/N=C/c1ccccc1OC(F)F (configuration not stated),"inconclusive [inhibitor, partial curve]"
21,CCOc1cc(Br)c(COc2ccc(C)nc2[N+](=O)[O-])cc1OCC,inactive
22,O=C(CCCn1c(=S)[nH]c2ccccc2c1=O)NC1CCCCC1,"inconclusive [inhibitor, full curve, poor fit]"
23,Cc1ccc(S(=O)(=O)NCC(=O)N(CC(=O)NCC2CCCO2)Cc2ccccc2)cc1 (configuration not stated),"inconclusive [inhibitor, full curve, poor fit]"

row,SMILES,Potency
1,O=C1CC(c2ccco2)CC(O)=C1C=NCCN1CCN(C2CC(=O)N(c3ccccc3)C2=O)CC1 (configuration not stated),"inconclusive [inhibitor, single point]"
2,O=C(CN1C(=O)COc2ccccc21)N1CCN(c2ccccc2F)CC1,"inconclusive [inhibitor, partial curve, poor fit]"
3,CSCCC(NS(=O)(=O)c1ccc(C)cc1)C(=O)NCC(C)(C)N1CCOCC1 (configuration not stated),"inconclusive [inhibitor, full curve, poor fit]"
4,Cc1[nH]n(-c2ccccc2)c(=O)c1N=Nc1ccc(C(=O)O)cc1,inactive
5,CCOC(=O)N1CCN(C(=O)COc2ccc(S(=O)(=O)NC(C)C)cc2)CC1,"inconclusive [inhibitor, partial curve, poor fit]"
6,CCOC(=O)C1CCN(S(=O)(=O)c2cn(C)c(=O)n(C)c2=O)CC1,"inconclusive [inhibitor, full curve, poor fit]"
7,CN(C)S(=O)(=O)c1ccc(Cl)c(C(=O)OCC(=O)NNC(=O)c2cccs2)c1,"inconclusive [inhibitor, partial curve, poor fit]"
8,C1=C(CCNc2ncnc3c2[nH]c2ccccc23)CCCC1,"inconclusive [inhibitor, full curve, poor fit]"
9,CCOC(=O)c1cc(S(=O)(=O)Nc2ccccc2OCC)[nH]n1,inactive
10,Cc1[nH]n(-c2ccc(C(=O)O)cc2)c(=O)c1CCO,"inconclusive [inhibitor, full curve]"
11,O=C(CSC1=NCCN1)C1COc2ccccc2O1 (configuration not stated),"inconclusive [inhibitor, partial curve]"
12,CN(C)c1ccc(/C=C2\SC(=S)N(Nc3ncc(C(F)(F)F)cc3Cl)C2=O)cc1,inactive
13,COc1ccccc1N1C(=O)CCC1(C#N)c1ccc(Br)cc1 (configuration not stated),"inconclusive [inhibitor, full curve, poor fit]"
14,O=C(c1ccc(Cl)cc1)c1ccccc1C(=O)N1CCOCC1,"inconclusive [inhibitor, full curve, poor fit]"
15,C/C(=N\NC(=O)CN1CCN(Cc2ccc(C)cc2)CC1)c1ccncc1,"inconclusive [inhibitor, single point]"
16,O=C(Nc1ccccc1N1CCOCC1)c1ccc(N2CCCC2=O)cc1,"inconclusive [inhibitor, full curve, poor fit]"
17,CCCC(=O)N=c1sc2cccc(F)c2n1C,"inconclusive [inhibitor, full curve]"
18,Cc1cc(=O)oc2c(C)c(OCC(=O)N3C[C@H]4C[C@@H](C3)c3cccc(=O)n3C4)ccc12,"inconclusive [inhibitor, full curve, poor fit]"
19,COc1ccc(-n2nc(C(=O)Nc3cc(OC)c(OC)c(OC)c3)c3ccccc3c2=O)c(OC)c1,"inconclusive [inhibitor, full curve, poor fit]"
20,COc1ccc(-c2nc(C#N)c(N3CCOCC3)o2)cc1OC,"inconclusive [inhibitor, full curve]"
21,CCOC(=O)c1ccc(NC(=O)CSC2=NN3CCCC(=O)N=C3S2)cc1,"inconclusive [inhibitor, partial curve, poor fit]"
